Several values for one entry are separate records, joined by “and”; a condition that tells them apart may be missing. Equal entries are not always repeated. Among all 150,000 compounds or so, about 540 (0.36%) showed an effect of 50% or more. The list shows a part of the results.
Tested on: Plasmodium falciparum
Experiment: Primary screen in NF54 nanoGlo assay, in single point, at 2uM, 72h; a lower Z score goes with more inhibition
Type: functional, Erythrocyte
Conditions: timepoint 72 hour

## Cc1cccc(Cn2cccc2CN(C(=O)c2ccc(C(F)(F)F)cc2)[C@@H](C)C(C)C)c1
  % Inhibition: -5%
  Z score: 0.63

## C[C@H]1CN(C(=O)c2ncc(F)cc2F)C[C@]1(O)C1CC1
  % Inhibition: 2%
  Z score: -0.41

## CCn1cnnc1CNC(=O)c1cncc(Br)c1
  % Inhibition: -2%
  Z score: 0.39

## Cn1c(-c2nc(-c3ccccc3C(F)(F)F)no2)cccc1=O
  % Inhibition: -21%
  Z score: 4.03

## CC1CCN(C[C@H]2CCCCCN2C(=O)c2cc(F)ccc2F)CC1
  % Inhibition: -1%
  Z score: 0.1

## O=C(NC1CCc2ccccc21)N1CCCC1CC(O)c1ccco1 (stereo not drawn)
  % Inhibition: -1%
  Z score: 0.05

## COc1cc2c(cc1Cl)-n1cccc1C1(CCNCC1)N2
  % Inhibition: 37%
  Z score: -4.74

## COc1cc2ccncc2cc1OC(=O)c1cc(C#N)cn1C
  % Inhibition: -9%
  Z score: 1.27

## Cc1c(NC(=O)c2cc(-c3cccc(O)c3)on2)c(=O)n(-c2ccccc2)n1C
  % Inhibition: -13%
  Z score: 2.42

## O=S(=O)(Nc1ccc(Cc2ccncc2)cc1)N1CCCCC1
  % Inhibition: -13%
  Z score: 1.32

## COc1ccc(NC2(C(=O)N(C)[C@@H](C)c3cccc(OC)c3)CCCC2)cc1
  % Inhibition: -7%
  Z score: 1.32

## CCc1ccc(S(=O)(=O)N2CCCN(C)C[C@@H]2C)s1
  % Inhibition: 5%
  Z score: -0.64

## O=C(N[C@H](c1ccccc1)c1nnn[nH]1)c1cncc2sccc12
  % Inhibition: -1%
  Z score: 0.2

## Cn1nccc1CCC(=O)N[C@H]1CCCC[C@H]1CC(F)(F)F
  % Inhibition: -6%
  Z score: 1.05

## Cc1cnc(N2CCO[C@H](c3ccc(F)cc3)C2)nc1N
  % Inhibition: -1%
  Z score: 0.16

## CC1(C)C[C@@H]1C(=O)NCc1ccc(-c2ncon2)cc1
  % Inhibition: 10%
  Z score: -1.09

## CCCn1c(=O)[nH]c2cc(-c3noc(CN4C(=O)COc5ccc(Cl)cc54)n3)ccc21
  % Inhibition: -4%
  Z score: 0.49

## Cc1n[nH]c(CN2CCc3cc(C(F)(F)F)ccc3C2)n1
  % Inhibition: -18%
  Z score: 1.8

## CCc1cnc([C@H](C)NC(=O)NCC2(CC)CC2)s1
  % Inhibition: -12%
  Z score: 1.38

## CS(=O)(=O)NCCCc1cccc(Br)c1
  % Inhibition: 0%
  Z score: 0.01

## CC(=O)Nc1ccc(CNC[C@H]2Cn3cc(-c4ccc(C)cc4)nc3CO2)cc1
  % Inhibition: 11%
  Z score: -1.28

## c1coc(-c2nnn(CC3CCOCC3)n2)c1
  % Inhibition: -11%
  Z score: 1.41

## CCCO[C@H]1CCCN(C(=O)c2ccc3[nH]cnc3c2)CC1
  % Inhibition: 0%
  Z score: 0.04

## O=C1CN(C(=O)NCC2(Cc3ccccc3)CCC2)CCN1
  % Inhibition: -13%
  Z score: 2.02

## O=C1CCCC1C1COCCN1S(=O)(=O)Cc1ccccc1Cl (stereo not drawn)
  % Inhibition: -2%
  Z score: 0.23

## Cc1nccc(N2CCC[C@@H]2CNC(=O)OC(C)(C)C)n1
  % Inhibition: -15%
  Z score: 1.83

## Cc1nc(C)c(C(=O)NCc2csc(N)n2)o1
  % Inhibition: -9%
  Z score: 0.84

## O=C(Cc1nc2cc(Cl)ccc2[nH]1)N1CCCn2cncc2C1
  % Inhibition: -4%
  Z score: 0.81

## COc1ccc(CCc2nc(NC(=O)Cn3cnc4ccccc4c3=O)n[nH]2)cc1
2 µM
  % Inhibition: -12% and 1%

## CCCS(=O)(=O)N1CCCCC1C(=O)NC(CO)CCC(C)(C)C (stereo not drawn)
  % Inhibition: -4%
  Z score: 0.62

## COc1ccc(O[C@H]2COCCN(C(C)=O)C2)cc1
  % Inhibition: 3%
  Z score: -0.49

## CCCN(CC(=O)N(C)C)C(=O)Cc1ccc(Cl)c(Cl)c1
  % Inhibition: -2%
  Z score: 0.22

## Cc1cc(C)[n+]2nc(-c3ccccc3)sc2c1C#N
2 µM
  % Inhibition: 3% and 6%
  Z score: -0.54 and -0.73

## Cc1ccc(NC(=O)c2ncn3c2C(=O)N(C2CC2)[C@](C)(C(=O)NC2CCCC2)C3)cc1Cl
  % Inhibition: -2%
  Z score: 0.29

## CO[C@@H](C)C(=O)Nc1ccc(Br)c(Cl)c1F
  % Inhibition: -5%
  Z score: 1.02

## CCCCN(Cc1nnc(C)s1)C1CCCC1
  % Inhibition: -6%
  Z score: 1.07

## CCn1c(=O)c(N2CCC(C(=O)Nc3cccc(F)c3)CC2)c(C)n(-c2ccccc2)c1=O
  % Inhibition: 4%
  Z score: -0.72

## C[C@](O)(CNC(=O)NC1CCOCC1)c1cc2ccccc2o1
  % Inhibition: -10%
  Z score: 1.76

## C[C@H](O)CCN(C)c1ccc(Br)cn1
  % Inhibition: -13%
  Z score: 2.01

## CC(NC(=O)CC1=CCCCC1)C1CCCN(C2CCC2)C1 (stereo not drawn)
  % Inhibition: 5%
  Z score: -0.59

## O=C(CCc1nc2ccccc2c(=O)[nH]1)N(CC1CC1)CC1CC1
  % Inhibition: -6%
  Z score: 0.96

## CCN(CC)S(=O)(=O)NCCOc1ccc(Cl)cc1
  % Inhibition: -6%
  Z score: 0.86

## O=C1C[C@@H](c2ccccc2)N(C(=O)CC(F)(F)F)CCN1
  % Inhibition: -13%
  Z score: 1.68

## O=C(Nc1ccc(S(=O)(=O)Nc2nccs2)cc1)c1cnn2c1OCCC2
  % Inhibition: 2%
  Z score: -0.33

## CC[C@](C)(NCCC(=O)N1CCOCC1)c1nccs1
  % Inhibition: -15%
  Z score: 2.66

## Cc1ccc(CCNC(=O)c2ccc3c(c2)nc2n3CCCC2)cc1
  % Inhibition: 9%
  Z score: -1.68

## CCc1cc(N2CCO[C@H](c3nc(C(C)(C)C)cs3)C2)nc(-c2ccncc2)n1
  % Inhibition: -8%
  Z score: 1.56

## C[C@H]1CCCN(c2ccc(Cl)cc2NC(=O)c2coc(CN)n2)C1
  % Inhibition: -22%
  Z score: 2.42

## O=C(NCCc1ccco1)c1cncc(Br)c1
  % Inhibition: -7%
  Z score: 0.59

## CNc1cccc(C(=O)Nc2nncs2)n1
  % Inhibition: -13%
  Z score: 1.62

## Cn1cc2c(NCc3cccc(COC4CCOCC4)c3)ncnc2n1
  % Inhibition: -14%
  Z score: 1.74

## COc1ccc(NC(=O)CCC2CCN(Cc3ccc4c(c3)OCCO4)CC2)c(OC)c1
  % Inhibition: 0%
  Z score: 0.01

## CCCn1c(C)cnc1[C@H]1CCN(S(=O)(=O)c2cnn(CC)c2)C1
  % Inhibition: -9%
  Z score: 1.36

## CCN(CC)C(=O)C1CCCN(C2CCC(=O)N(Cc3ccc(F)cc3F)CC2)C1 (stereo not drawn)
  % Inhibition: -10%
  Z score: 1.68

## CCOc1cncc(CNc2nnc(CC)o2)c1
  % Inhibition: 1%
  Z score: -0.19

## COC1(C)CN(Cc2cc(C)ns2)C1
  % Inhibition: 13%
  Z score: -1.12

## Cc1ccccc1CNC(C)(C)c1nnc2n1CCCC2
  % Inhibition: -6%
  Z score: 1.15

## O=C(Nc1ccc2c(c1)OCCO2)N1CC(n2cnnc2[C@@H]2CCCO2)C1
  % Inhibition: -10%
  Z score: 1.5

## CN(Cc1nccn1C)c1ccc2cc[nH]c2n1
  % Inhibition: -14%
  Z score: 1.5

## CN(C(=O)C(O)C1CCC1)C1CCN2CCOC1C2 (stereo not drawn)
  % Inhibition: -21%
  Z score: 2.49

## COc1cc(OC)cc(C(=O)Nc2cccc(NC(=O)c3cc(OC)cc(OC)c3)n2)c1
  % Inhibition: 16%
  Z score: -1.92

## Cc1ncc(C(=O)N2CCC[C@@]2(c2c[nH]c3ccccc23)C(F)(F)F)c(C)n1
  % Inhibition: -8%
  Z score: 1.36

## CCC(CC)(CNS(=O)(=O)c1cnn(C)c1)N(C)C
  % Inhibition: 0%
  Z score: 0.05

## C#CCCCC(=O)N(C)c1cccc(N(C)C(=O)CCCC#C)n1
  % Inhibition: 0%
  Z score: 0

## Cc1cc(N(C)Cc2cnccn2)n2nc(C)cc2n1
  % Inhibition: -2%
  Z score: 0.23

## CN1C(=O)c2cc(C(F)(F)F)ccc2O[C@H]2CN(C(=O)c3ccccc3)C[C@H]21
  % Inhibition: 1%
  Z score: -0.15

## OCC1(CCCc2ccccc2)CCN(C2CCC2)CC1
  % Inhibition: -5%
  Z score: 0.62

## O=C(NC1CCCCCC1)c1csc(-c2cccs2)n1
  % Inhibition: -15%
  Z score: 1.92

## CCC(C)OCC(=O)NC(C#N)c1cccc(Br)c1 (stereo not drawn)
  % Inhibition: -4%
  Z score: 0.53

## COc1ccc(C(=O)N2CCN(c3nnc4ccc(C(F)(F)F)cn34)CC2)cc1
  % Inhibition: 28%
  Z score: -3.15

## O=C1CC2(CCN(Cc3cccc(-c4ccc(Cl)cc4)c3)CC2)CN1
  % Inhibition: 3%
  Z score: -0.55

## O=S(=O)(c1ccccc1OC(F)(F)F)N1C2CCC1CC(Oc1ccccn1)C2 (stereo not drawn)
  % Inhibition: -1%
  Z score: 0.14

## CCn1cc(CNC(=O)CCCC2CCCCC2)c(=O)[nH]c1=O
  % Inhibition: -4%
  Z score: 0.65

## O=C(Nc1ccccc1C(=O)N1CCCCC1)C1CCN(S(=O)(=O)Cc2ccccc2)CC1
  % Inhibition: -6%
  Z score: 1.07

## NC(=O)c1cncc(NCCCOC2CCCC2)n1
  % Inhibition: -23%
  Z score: 2.23

## Cn1cc(S(=O)(=O)N2CCCC2)cc1C(=O)Nc1ccccc1C(=O)Nc1cccc(F)c1
  % Inhibition: -9%
  Z score: 1.72

## CC(C)N(CC#CCNC(=O)c1cncc(Br)c1)C(C)C
  % Inhibition: -4%
  Z score: 0.76

## Cn1ncc(-c2cc3ccccc3o2)c1N
  % Inhibition: -8%
  Z score: 0.77

## COC[C@](C)(CC(=O)OC)NCC#Cc1ccc(Cl)cc1
  % Inhibition: -3%
  Z score: 0.52

## CCc1nc2c(c(N3CCCCC3)n1)C1(CCCC1)Cc1ccccc1-2
  % Inhibition: -8%
  Z score: 1.05

## CC(CCNC(=O)OC(C)(C)C)CC(C)NCCn1cccn1 (stereo not drawn)
  % Inhibition: -11%
  Z score: 1.46

## CC(C)Oc1cccc(CC(=O)N(C)CCCC(=O)O)c1
  % Inhibition: -15%
  Z score: 1.28

## CCc1cnc(C)nc1N[C@@H](COC)c1ccnn1C
  % Inhibition: -10%
  Z score: 1.34

## COc1ccc([C@@H]2CN(C(=O)OC(C)(C)C)CCN2)cc1
  % Inhibition: -2%
  Z score: 0.38

## COc1nc2c(cc1CNC(=O)[C@@H]1CNC(=O)N1)C(=O)N(C1CCCC1)C2
  % Inhibition: -13%
  Z score: 1.38

## Cc1ncc(CN[C@H]2CC(=O)N(Cc3cccc(F)c3)C2)n1C
  % Inhibition: 0%
  Z score: 0.09

## CC(C)n1c([C@H](C)NCc2ccon2)nc2ccccc21
  % Inhibition: -10%
  Z score: 1.08

From ChEMBL document CHEMBL4888484, “Replenishing the malaria drug discovery pipeline: Screening and hit evaluation of the MMV Hit Generation Library 1 (HGL1) against asexual blood stage Plasmodium falciparum ,using a nano luciferase reporter read-out” (2022)
